From patent publication US11730723B2, “Compounds and methods for treating viral infections” (priority 2020, dated 2023)

Test system: dengue virus (DENV) serotype 2 strain D2Y98P
Experiment: Dengue virus D2Y98P inhibition assay in Vero cells (immunostaining)
Details: read-out: D2Y98P IC50
Protocol: The antiviral activity of Compound 1 against two dengue virus (DENV) serotype 2 strains (D2Y98P and D2S221) was measured by the concentration of Compound 1 that inhibits 50% virus infectivity (IC50) for each strain.
A cytopathic (CPE)-based inhibition assay was conducted in Vero cells. Eight three-fold serial dilutions of test items in triplicate was evaluated against D2Y98P and D2S221.
The cells were fixed with ethanol/methanol for 30 minutes at −20° C., then the cells were washed 3× with DPBS before to remove the alcohol solution and cells were blocked by addition of 5% dry nonfat milk prepared in 1×DPBS (blocking buffer) for 30 minutes. Blocking buffer was removed from wells and 100 μL of the diluted primary antibody, 4G2 (1:2,000 in blocking buffer) was added to each well for two hours incubation at room temperature. Plates were washed three times with 1×DPBS. The secondary antibody, Goat Anti-Mouse IgG (H+L)-HRP Conjugate, was diluted 1:2,000 in blocking buffer and 100p L was added to each well for 1-hour incubation at room temperature. The secondary antibody was removed, and the plates were washed three times with 1×DPBS. TrueBlue peroxidase substrate (150 μL/well) was added for approximately 10 minutes (until plaques are visualized). The Bioreader 6000-Vα was used to count plaques.
Data were imported into Excel to calculate the ID50 values. The XLfit 5 plug-in was used with fit #205 (Levenberg-Marquardt algorithm) setting virus-only as 0% efficacy.

| Compound | IC50 [µM] |
| --- | --- |
| NC(=O)c1ncn([C@@H]2O[C@H](CO)[C@@H](O)[C@H]2O)n1 [Ribavirin] | 120 |
| CC(C)C[C@](C)(N)COc1ccc(-c2ccnc(C(F)F)c2)nc1C(F)F [Compound 1, (S)-1-((2′,6-bis(difluoromethyl)-[2,4′-bipyridin]-5-yl)oxy)-2,4-dimethylpentan-2-amine] | 7.09 |
| CCN(CC)CCNC(=O)c1c(C)[nH]c(/C=C2\C(=O)Nc3ccc(F)cc32)c1C [Sunitinib] | 5.65 |
| CCN(CC)CCCC(C)Nc1ccnc2cc(Cl)ccc12 (stereo not shown) [Chloroquine diphosphate] | 11.7 |
